At least one read-out could not be matched to a standard name with certainty. Starred links: 1 amine or outer side, 2 acyl side, 3 side chain; linkers in the order of their positions; H or OH if unused. Positions of bridges follow the written chain, without caps; N, C: chain ends. Residues, ends and D or L forms follow the SMILES beside them. *: point of attachment. C20 diacid = O=C(O)CCCCCCCCCCCCCCCCCCC(=O)*; C18 diacid = O=C(O)CCCCCCCCCCCCCCCCC(=O)*; γGlu = O=C(O)[C@H](CCC(=O)[*:2])N[*:1]; AEEA = NCCOCCOCC(=O)O
assay: Assay (III) ThT fibrillation assay for physical stability; format: physicochemical; details: ThT fibrillation assay
In short: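 Freshly prepared formulations, pH-adjusted, with 1 μM ThT; four or eight replicates incubated at 37 °C under 960 rpm orbital shaking. Fluorescence (ex 444/em 485 nm) read every 20 min; […]. Peptide concentration measured by RP-HPLC before and after the run.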

SMILES | ThT pH 4.0 recovery (%) | ThT pH 4.0 recovery
CC[C@H](C)[C@H](NC(=O)[C@@H]1CCCN1C(=O)CNC(=O)[C@H](Cc1ccccc1)NC(=O)[C@H](CC(N)=O)NC(=O)[C@H](CC(N)=O)NC(=O)[C@H](CO)NC(=O)[C@H](CO)NC(=O)[C@H](Cc1c[nH]cn1)NC(=O)[C@H](Cc1c[nH]cn1)NC(=O)[C@H](CC(C)C)NC(=O)[C@H](Cc1ccccc1)NC(=O)[C@H](CCC(=O)O)NC(=O)[C@H](C)NC(=O)[C@H](CC(C)C)NC(=O)[C@H](CCCNC(=N)N)NC(=O)[C@H](CCC(=O)O)NC(=O)[C@@H](NC(=O)[C@H](C)NC(=O)[C@@H]1CSSC[C@H](NC(=O)[C@H](CCCCN)NC(=O)CC[C@H](NC(=O)CCCCCCCCCCCCCCCCCCC(=O)O)C(=O)O)C(=O)N[C@@H](CC(N)=O)C(=O)N[C@@H]([C@@H](C)O)C(=O)N[C@@H](C)C(=O)N[C@@H]([C@@H](C)O)C(=O)N1)[C@@H](C)O)C(=O)N[C@@H](CC(C)C)C(=O)N1CCC[C@H]1C(=O)N1CCC[C@H]1C(=O)N[C@H](C(=O)N[C@@H](CC(N)=O)C(=O)N[C@H](C(=O)NCC(=O)N[C@@H](CO)C(=O)N[C@@H](CC(N)=O)C(=O)N[C@H](C(=O)N[C@@H](Cc1ccc(O)cc1)C(N)=O)[C@@H](C)O)C(C)C)[C@@H](C)O [Example 54, N-alpha-[(S)-4-Carboxy-4-(19-carboxynonadecanoylamino)butyryl]-[Glu10,Glu14,His17]-pramlintide] ({C20 diacid-γGlu}-KCNTATCATERLAEFLHHSSNNFGPILPPTNVGSNTY-NH2; disulfide 2-7 (inferred)) | 42% | 
CC[C@H](C)[C@H](NC(=O)[C@@H]1CCCN1C(=O)CNC(=O)[C@H](Cc1ccccc1)NC(=O)[C@H](CC(N)=O)NC(=O)[C@H](CC(N)=O)NC(=O)[C@H](CO)NC(=O)[C@H](CO)NC(=O)[C@H](Cc1c[nH]cn1)NC(=O)[C@H](Cc1c[nH]cn1)NC(=O)[C@H](CC(C)C)NC(=O)[C@H](Cc1ccccc1)NC(=O)[C@H](CCC(=O)O)NC(=O)[C@H](C)NC(=O)[C@H](CC(C)C)NC(=O)[C@H](CCCNC(=N)N)NC(=O)[C@H](CCC(N)=O)NC(=O)[C@@H](NC(=O)[C@H](C)NC(=O)[C@@H]1CSSC[C@H](NC(=O)[C@H](CCCNC(=N)N)NC(=O)CNC(=O)CC[C@H](NC(=O)CCCCCCCCCCCCCCCCCCC(=O)O)C(=O)O)C(=O)N[C@@H](CC(N)=O)C(=O)N[C@@H]([C@@H](C)O)C(=O)N[C@@H](C)C(=O)N[C@@H]([C@@H](C)O)C(=O)N1)[C@@H](C)O)C(=O)N[C@@H](CC(C)C)C(=O)N1CCC[C@H]1C(=O)N1CCC[C@H]1C(=O)N[C@H](C(=O)N[C@@H](CC(N)=O)C(=O)N[C@H](C(=O)NCC(=O)N[C@@H](CO)C(=O)N[C@@H](Cc1c[nH]cn1)C(=O)N[C@H](C(=O)N[C@@H](Cc1ccc(O)cc1)C(N)=O)[C@@H](C)O)C(C)C)[C@@H](C)O [Example 100, N-alpha-[(S)-4-Carboxy-4-(19-carboxynonadecanoylamino)butyryl]-Gly-[Arg1,Glu14,His17,His35]-pramlintide] ({C20 diacid-γGlu}-GRCNTATCATQRLAEFLHHSSNNFGPILPPTNVGSHTY-NH2; disulfide 3-8 (inferred)) | 92% | 92%
CC[C@H](C)[C@H](NC(=O)[C@@H]1CCCN1C(=O)CNC(=O)[C@H](Cc1ccccc1)NC(=O)[C@H](CC(N)=O)NC(=O)[C@H](CC(N)=O)NC(=O)[C@H](CO)NC(=O)[C@H](CO)NC(=O)[C@H](Cc1c[nH]cn1)NC(=O)[C@H](Cc1c[nH]cn1)NC(=O)[C@H](CC(C)C)NC(=O)[C@H](Cc1ccccc1)NC(=O)[C@H](CCC(=O)O)NC(=O)[C@H](C)NC(=O)[C@H](CC(C)C)NC(=O)[C@H](CCCNC(=N)N)NC(=O)[C@H](CCC(N)=O)NC(=O)[C@@H](NC(=O)[C@H](C)NC(=O)[C@@H]1CSSC[C@H](NC(=O)[C@H](CCCCN)NC(=O)[C@H](CCC(=O)O)NC(=O)[C@H](CCC(=O)O)NC(=O)CC[C@H](NC(=O)CCCCCCCCCCCCCCCCCCC(=O)O)C(=O)O)C(=O)N[C@@H](CC(N)=O)C(=O)N[C@@H]([C@@H](C)O)C(=O)N[C@@H](C)C(=O)N[C@@H]([C@@H](C)O)C(=O)N1)[C@@H](C)O)C(=O)N[C@@H](CC(C)C)C(=O)N1CCC[C@H]1C(=O)N1CCC[C@H]1C(=O)N[C@H](C(=O)N[C@@H](CC(N)=O)C(=O)N[C@H](C(=O)NCC(=O)N[C@@H](CO)C(=O)N[C@@H](CC(N)=O)C(=O)N[C@H](C(=O)N[C@@H](Cc1ccc(O)cc1)C(N)=O)[C@@H](C)O)C(C)C)[C@@H](C)O [Example 41, N-alpha-[(S)-4-Carboxy-4-(19-carboxynonadecanoylamino)butyryl]-Glu-Glu-[Glu14,His17]-pramlintide] ({C20 diacid-γGlu}-EEKCNTATCATQRLAEFLHHSSNNFGPILPPTNVGSNTY-NH2; disulfide 4-9 (inferred)) | 0% | 
CC[C@H](C)[C@H](NC(=O)[C@@H]1CCCN1C(=O)CNC(=O)[C@H](Cc1ccccc1)NC(=O)[C@H](CC(N)=O)NC(=O)[C@H](CC(N)=O)NC(=O)[C@H](CO)NC(=O)[C@H](CO)NC(=O)[C@H](Cc1c[nH]cn1)NC(=O)[C@@H](NC(=O)[C@H](CC(C)C)NC(=O)[C@H](Cc1ccccc1)NC(=O)[C@H](CCC(=O)O)NC(=O)[C@H](C)NC(=O)[C@H](CC(C)C)NC(=O)[C@H](CCCNC(=N)N)NC(=O)[C@H](CCC(N)=O)NC(=O)[C@@H](NC(=O)[C@H](C)NC(=O)[C@@H]1CSSC[C@H](NC(=O)[C@H](Cc2c[nH]cn2)NC(=O)[C@H](Cc2c[nH]cn2)NC(=O)[C@H](Cc2c[nH]cn2)NC(=O)CC[C@H](NC(=O)CCCCCCCCCCCCCCCCCCC(=O)O)C(=O)O)C(=O)N[C@@H](CC(N)=O)C(=O)N[C@@H]([C@@H](C)O)C(=O)N[C@@H](C)C(=O)N[C@@H]([C@@H](C)O)C(=O)N1)[C@@H](C)O)C(C)C)C(=O)N[C@@H](CC(C)C)C(=O)N1CCC[C@H]1C(=O)N1CCC[C@H]1C(=O)N[C@H](C(=O)N[C@@H](CC(N)=O)C(=O)N[C@H](C(=O)NCC(=O)N[C@@H](CO)C(=O)N[C@@H](CC(N)=O)C(=O)N[C@H](C(=O)N[C@@H](Cc1ccc(O)cc1)C(N)=O)[C@@H](C)O)C(C)C)[C@@H](C)O [Example 20, N-alpha-[(S)-4-Carboxy-4-(19-carboxynonadecanoylamino)butyryl]-His-His-[His1,Glu14]-pramlintide] ({C20 diacid-γGlu}-HHHCNTATCATQRLAEFLVHSSNNFGPILPPTNVGSNTY-NH2; disulfide 4-9 (inferred); C-terminus assumed) | 0% | 

Results, then the molecule that gave them:

ThT pH 4.0 recovery (%) | ThT pH 4.0 recovery | SMILES
2% |  | CC[C@H](C)[C@H](NC(=O)[C@@H]1CCCN1C(=O)CNC(=O)[C@H](Cc1ccccc1)NC(=O)[C@H](CC(N)=O)NC(=O)[C@H](CC(N)=O)NC(=O)[C@H](CO)NC(=O)[C@H](CO)NC(=O)[C@H](Cc1c[nH]cn1)NC(=O)[C@@H](NC(=O)[C@H](CC(C)C)NC(=O)[C@H](Cc1ccccc1)NC(=O)[C@H](CCC(=O)O)NC(=O)[C@H](C)NC(=O)[C@H](CC(C)C)NC(=O)[C@H](CCCNC(=N)N)NC(=O)[C@H](CCC(N)=O)NC(=O)[C@@H](NC(=O)[C@H](C)NC(=O)[C@@H]1CSSC[C@H](NC(=O)[C@H](CCCNC(=N)N)NC(=O)CNC(=O)CC[C@H](NC(=O)CCCCCCCCCCCCCCCCCCC(=O)O)C(=O)O)C(=O)N[C@@H](CC(N)=O)C(=O)N[C@@H]([C@@H](C)O)C(=O)N[C@@H](C)C(=O)N[C@@H]([C@@H](C)O)C(=O)N1)[C@@H](C)O)C(C)C)C(=O)N[C@@H](CC(C)C)C(=O)N1CCC[C@H]1C(=O)N1CCC[C@H]1C(=O)N[C@H](C(=O)N[C@@H](CC(N)=O)C(=O)N[C@H](C(=O)NCC(=O)N[C@@H](CO)C(=O)N[C@@H](CC(N)=O)C(=O)N[C@H](C(=O)N1CCC[C@H]1C(N)=O)[C@@H](C)O)C(C)C)[C@@H](C)O [Example 102, N-alpha-[(S)-4-Carboxy-4-(19-carboxynonadecanoylamino)butyryl]-Gly-[Arg1,Glu14,Pro37]-pramlintide] ({C20 diacid-γGlu}-GRCNTATCATQRLAEFLVHSSNNFGPILPPTNVGSNTP-NH2; disulfide 3-8 (inferred); C-terminus assumed)
27% |  | CC[C@H](C)[C@H](NC(=O)[C@@H]1CCCN1C(=O)CNC(=O)[C@H](Cc1ccccc1)NC(=O)[C@H](CC(N)=O)NC(=O)[C@H](CC(N)=O)NC(=O)[C@H](CO)NC(=O)[C@H](CO)NC(=O)[C@H](Cc1c[nH]cn1)NC(=O)[C@H](Cc1c[nH]cn1)NC(=O)[C@H](CC(C)C)NC(=O)[C@H](Cc1ccccc1)NC(=O)[C@H](CCC(=O)O)NC(=O)[C@H](C)NC(=O)[C@H](CC(C)C)NC(=O)[C@H](CCCNC(=N)N)NC(=O)[C@H](CCC(N)=O)NC(=O)[C@@H](NC(=O)[C@H](C)NC(=O)[C@@H]1CSSC[C@H](NC(=O)[C@H](CCC(=O)O)NC(=O)COCCOCCNC(=O)COCCOCCNC(=O)CC[C@H](NC(=O)CCCCCCCCCCCCCCCCC(=O)O)C(=O)O)C(=O)N[C@@H](CC(N)=O)C(=O)N[C@@H]([C@@H](C)O)C(=O)N[C@@H](C)C(=O)N[C@@H]([C@@H](C)O)C(=O)N1)[C@@H](C)O)C(=O)N[C@@H](CC(C)C)C(=O)N1CCC[C@H]1C(=O)N1CCC[C@H]1C(=O)N[C@H](C(=O)N[C@@H](CC(N)=O)C(=O)N[C@H](C(=O)NCC(=O)N[C@@H](CO)C(=O)N[C@@H](CC(N)=O)C(=O)N[C@H](C(=O)N1CCC[C@H]1C(N)=O)[C@@H](C)O)C(C)C)[C@@H](C)O [Example 82, N-alpha-[2-(2-{2-[2-(2-{2-[(S)-4-Carboxy-4-(17-carboxyheptadecanoylamino)butyrylamino]ethoxy}ethoxy)acetylamino]ethoxy}ethoxy)acetyl]-[Glu1,Glu14,His17,Pro37]-pramlintide] ({C18 diacid-γGlu-AEEA-AEEA}-ECNTATCATQRLAEFLHHSSNNFGPILPPTNVGSNTP-NH2; disulfide 2-7 (inferred); C-terminus assumed)
